According to the RNAGym collection of RNA variant scans (doi:10.7554/elife.90254):
Read counts are not given, so values of variants with three or more changes are uncertain.

B1: OR4K15 (parent)
chain: GUUAACGGUCAUAGGCCAUGGAAACUAGGAGCACCAUUUCGCUGCCAGUGAAGAAAUGAACAAAGAAAAUCUGGGCCAGGCAGGCAUCAAAAGAAAUAGUCUUGCGCUCAACCAGAAAGUCUGUAAUCAUUUUAAGGGUA

Variants of: B1
Assay: self-cleavage, relative activity (ratio to wild type); higher = more cleavage; in vitro, sequencing; the parent is a self-cleaving ribozyme

Variant	self-cleavage
A22G A59G A63U	1.05
U43A A51G U57C A66U	1.05
A22G A30G C34G U133C	0.25
U3A G93U U103C A118U	0.68
U43G C61U A69G	1.32
U43C A91G U120C U132C	0.24
A55G A66U A86G A125G	0.15
U26A A30G U133G	1.76
U57C A63G A90G C113A	0.01
A24G C77U A89U	2.41
A36G A66G A82C U122C	0.13
A52G A89U U97A	1.67
A51U U102A A135G	0.83
A69G C71U U108C	0.01
A36G U49C G83A A116U	0.92
C34U U122G U131C	2.76
A24G A54G A92G G137A	2.08
A18U A89G A91G A117G A129G	1.79
A110U A118G C121A	1.19
U37C A62U G115A	0.14
A33U A54G A92G	0.74
C40U A63U A110G	0.06
A51G G74A U100C A118G A140G	0.11
A47G A56U U122A	1.01

Variant	self-cleavage
C35U A68G U70A	0.42
A82G A98G U103C	1.39
U72C U108C A116U	0.01
U3C A30C U39A U49C A111G A118G U132C	0
A24C C46U A91U	0.57
A47G A66G A94U U102C	0.43
A59U A62U A63U A68U U131C	0.21
U12C U43C U100C C128U	2.04
A36G U39C A62U U100C	2.15
A64G A90G A114U A116G	0.01
U3A A5G A96G	1.24
U2A A114G U132C	0.2
A33G A60G A94G	1.57
A5U A33G A78C	0.21
U9C U12A A36G U49G C105U	0.21
U38C A89G A98U	2.66
A18G U97C U132C	1.39
U43C A51G A116G	0.42
U49C A82G A91G A92G A111G	0.01
A5U A51U A126G U133A	0.72
A68G U87C A118G A134G	0.12
A69G A114G U130C	0.06
A5G A55G A64U	0.5
A5G U12A A51G A82G A94U U103C	1.78

Variant	self-cleavage
U3A G44A A55G A68G	0.26
A67G U100C U103C	1.57
A24G A52G A62G A126G	1.11
A63G A82C A94G	0.19
A23G U37C U87C	1.76
A11C U12C A18G U26C A33G A51G A86U	0.75
A5G A54G A55U	1.38
A11U A23G A89G A110G	0.14
A18U A60G A82G G137A	0.12
U49C A66G U139A	1.07
G15A A22G A82G	0.63
A11U A63G A96G	1.59
U19C U100A A135G	0.54
U2C A66G U87C	1.83
G7A A56G A67G	1.28
U43A A78G U130C	0.21
U39A U87C A94G	1.53
C35U A117U A135G	0.51
A11G A30G G74A A111G	0.03
U49C A51U A55G U87C C88U	0.56
A11G A54G U72C	0.37
U39C A54G A56C A86G	0.66
A55G A90G U130A	0.06
U9C A22G U43C U100C A116G U122C	0.65

Variant	self-cleavage
U38C U43A U57C A110G	0.2
C35U A64G A92G	1.02
U39C U70C U87C A89U	1.08
A54G A86G C105U A126G A135G	0.04
U9A U43C A54G U72A U87C	0.31
U39C A91G A111G	0.03
U2C A18C U70C	0.39
U43C A90G G106A	0.02
A33G A62G A68G A82U U87C A96G	0.02
A23G A27G A54C A94G	0.96
U3C A24G A69G A117G G138A	1.45
A22G A23G A86G	1.91
A52G A62U A68G A96G	1.36
U43G A54G U122A	1.43
A51G A96G A118U	0.25
A18U G29U A55U A63G U108C	0.02
A118G U122C A129G U130C	0.28
U9C U49C A114G U122G	0.15
U26A A47G U72G	0.53
U2C A23G A36G U103C	0.4
A5U A22G A30G U38C A78G	0.37
A69G A92G A110U	0.61
U43C A95U A110G A116G	0.03
U37C A95U U102C A111G	0.03

Variant	self-cleavage
U9C C10U A67G A68G C101U U130C A135G	0.76
U43A C112A U132A	0.2
A62G U72A A95G U124A U133C	0.3
C45U A52G U124C	0.63
U37C A69G U100C	0.94
U12A A13G A54G A95C A117G	0.94
A4G A66G U122C	0.84
A52G A62G A66G C85U	0.65
A23G A47G C128A	0.79
U9A U37A A94G	0.97
U37G A62G A110G	0.27
U38C A56G U130A	0.33
A24G A64G U120C	0.71
U19C G29A A33G A111G A117G	0.01
A63G U102C U103C G119C	0.19
U70C A95G C101A	0.16
A36U A64G A68G	1.87
A60G U102C U103C U132A	0.08
A4G A110C A116G	0.23
A90C U102C U108C A134U	0
A52G A62G U70C U131C	0.11
U57A A118G U122C U124C	0.57
A55G A94G A117U	1.01
A27G A30G U38C U39C A78C	0.35

Variant	self-cleavage
A51U G83A U103C	0.33
A11G A67G A92G A118G U130G	0.31
A13C A33G A52G A82C A96G	0.23
U2C U57A A96G A117G	1.4
G14A U19G A54G A60G	0.84
A5G A22G A59U	0.94
A63G A92G A117G	1.23
A5G A52U A64G A82G	0.71
G7U U39C U72A A114U	1.5
U38C A52G A55G A69U A90G	0.97
A52G U87G A92G U139C	0.43
U26C U38A A59G A68G U87C A89C A114G A116G	0.04
A11G A36G A60G U103C A140G	1.03
A36G U38C A98G U108C	0.04
U87C A91G U97C	0.76
U72C A96G A129G U132C	0.16
A36G U108C A134G	0.01
A67G A91G C128A	0.42
U19C A78C A114U A117G A134G	0.03
A56G A89U U100A A134G	0.93
U19C A89G U122C A140G	0.76
A30G A69G A82U	0.42
A59U U102C A116G	1.65
A5G A59G A140U	1.03

Variant	self-cleavage
A18G A27U G83U G123A	0.47
U2A A13G A24G	0.99
A64G A117G U122C	1.74
U2C A78G A129G	0.24
U37C A60G A92U	1.78
A5U U12A A59G	1.3
U19A U43A U87C U103C	0.1
A56G U72C U102A A117G A140G	0.08
A18G C45U A54G A129G	1.13
A24G C46U A126G	0.71
U70C U102C C112U	0.02
A52G A59G U124C	1.13
C46A A55G A60C G84A U132C	2.07
A67G U87C U102C	1.83
A22G U38A A47G A69C G137A	1.18
U2C U19G A67G	0.87
A18U A63G A64G G84U A89G A90G	0.44
U2A A5G U12C U49C A55G U120C	0.32
U43C A96G U108C	0.01
A23G A60G U108C U122G U132A	0
A11G A23G A96G U122A	0
A54C A56G A60G	1.13
A24G A52U A91G	1.09
